Measurements published in a compilation of properties of binary mixtures (doi:10.1021/acs.jced.9b00364).
Some of these densities may be calculated back from excess volumes.

Experiment: xn = mol fraction of the nth substance listed
Conditions: 100 kPa

CNCCO + CCCCOCCO
mass density [kg/m3]
Conditions	x1 = 0.1488	x1 = 0.4027	x1 = 0.5119	x1 = 0.6114	x1 = 0.7859	x1 = 0.934	x1 = 1
293.15 K	905	913.6	917.5	921.4	929.2	936.8	940.1
298.15 K	900.9	909.5	913.6	917.5	925.2	932.9	936.2
303.15 K	–	905.5	909.5	913.5	921.3	929	932.3
308.15 K	892.6	901.4	905.5	909.4	–	925	928.4
313.15 K	–	897.3	901.4	905.4	913.3	921.1	924.5
318.15 K	884.2	893.1	897.3	–	–	917.1	–
323.15 K	880	–	893.2	–	905.3	–	916.5
328.15 K	875.7	884.8	889	893.1	901.2	909.1	–
333.15 K	–	880.6	884.8	889	897.1	905	908.5
338.15 K	867	876.3	880.6	884.8	892.9	900.9	904.4
343.15 K	862.6	872	–	880.5	888.8	896.8	900.3
348.15 K	858.2	867.6	–	876.3	884.6	–	896.2
353.15 K	853.7	863.3	867.7	–	880.3	888.5	–

CNCCO + CCOCCO
mass density [kg/m3]
Conditions	x1 = 0.1176	x1 = 0.3396	x1 = 0.4444	x1 = 0.5454	x1 = 0.7368	x1 = 0.9152	x1 = 1
293.15 K	931.6	934.8	936	–	938.8	940.1	940.1
298.15 K	927.2	–	931.8	932.9	934.8	936.2	–
303.15 K	922.7	926.2	927.6	928.8	–	932.2	932.3
308.15 K	–	921.9	923.3	924.6	926.7	928.2	928.4
313.15 K	–	917.6	919.1	920.4	922.6	–	–
318.15 K	909.2	–	914.7	–	918.5	920.3	920.5
323.15 K	904.6	–	910.4	–	914.3	916.2	–
328.15 K	–	904.3	906	907.5	–	912.2	912.5
333.15 K	895.3	899.8	901.6	903.2	905.9	908.1	908.5
338.15 K	890.5	–	897.1	898.8	901.7	904	904.4
343.15 K	885.8	890.7	892.6	894.4	897.4	899.8	900.3
348.15 K	881	–	888.1	889.9	893.1	–	–
353.15 K	876.1	881.4	883.5	–	–	891.4	892.1
